From PubChem BioAssay AID540317 (National Center for Advancing Translational Sciences (NCATS), 2011)
Out of some 390,000 compounds screened, about 2,200 (0.56%) were called active. Inconclusive means that the source gave no clear call. Such entries were picked first, then a sample of the others. The call rests on the fitted dose curve; in most records, active means well fitted inhibition curve with a large enough effect; inconclusive means small, poorly fitted or top-dose-only effect; inactive means no such curve, though single readings can be large or run the other way. Potencies beside an inconclusive call are fits to weak or partial responses and may not hold up.

These molecules were tested against Chromobox protein homolog 1 (Homo sapiens) (UniProt P83916) (assay: HTS for Inhibitors of HP1-beta Chromodomain Interactions with Methylated Histone Tails). Details: AlphaScreen HP1-beta / biotin-H3K9me3 peptide binding; series mostly up to 114 µM.
Chain of UniProt P83916 (P83916 whole entry, looked up): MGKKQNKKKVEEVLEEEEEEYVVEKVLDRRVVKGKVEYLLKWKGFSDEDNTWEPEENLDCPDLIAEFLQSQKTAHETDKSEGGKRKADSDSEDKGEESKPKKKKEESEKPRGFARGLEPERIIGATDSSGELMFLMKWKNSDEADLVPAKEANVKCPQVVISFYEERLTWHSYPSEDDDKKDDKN
In short: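 Compound inhibition of the preformed complex between 50 nM HP1-beta and 50 nM biotinylated H3K9me3 peptide was read by AlphaScreen. Buffer was PBS pH 7.4 with 0.01% Tween-20. Incubations ran 30 min at room temperature, with 10 ug/mL donor/acceptor beads.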
Further: nearly all actives have a fitted effect of over 70% in size.
Potency means the concentration at half of the fitted maximal effect; tags describe the fitted curve by direction and shape.

SMILES	Potency
CN(C)Cc1cccc([N+](=O)[O-])c1O	inactive
Cc1cccc(-n2c(C)c(-c3ccccc3)[nH]c2=S)c1	inconclusive: 50.1 µM [inhibitor, partial curve]
Cc1nnc(NC(=O)CSc2ccc3nnc(-c4ccccn4)n3n2)s1	inactive
CN(C(=O)CC1C(=O)NCCN1Cc1cccc(F)c1F)C1CC(C)(C)NC(C)(C)C1 (stereo unspecified)	inactive
O=C(Cn1sc2ccccc2c1=O)NC12CC3CC(CC(C3)C1)C2	inconclusive: 12.6 µM [inhibitor, full curve, poor fit]
Cc1ccc(-c2ccc(/C=C(\C#N)C(N)=S)n2C)cc1	inactive
Cc1cc(/C=N/O)c(C)n1-c1ccc(Br)cc1	inconclusive: 50.1 µM [inhibitor, partial curve, poor fit]
O=C(NCc1cc2ccccc2[nH]1)C1CCC(=O)N(CCCN2CCCC2=O)C1 (stereo unspecified)	inactive
COc1cc(/C=C2\SC(=Nc3ccccc3)N(CCc3c[nH]c4ccccc34)C2=O)ccc1OC(C)C(=O)O (stereo unspecified)	inconclusive: 50.1 µM [inhibitor, partial curve, poor fit]
CC1(C)Cc2c(ccc3ccccc23)-c2nnc(-c3cccnc3)n21	inconclusive: 3.55 µM [inhibitor, partial curve, poor fit]
CCc1ccccc1NC(=O)CNC(=O)CNC(=O)c1cccs1	inactive
COc1cccc(CN2CCc3nc(Nc4ccc5c(c4)OCCO5)ncc3C2)c1OC	inconclusive: 39.8 µM [inhibitor, partial curve]
Cc1ccccc1NC(=S)NC(=O)c1cc(-c2ccccc2)nc2ccccc12	inactive
COc1cc(C(c2c(C)[nH][nH]c2=O)c2c(C)[nH][nH]c2=O)cc([N+](=O)[O-])c1O	inconclusive: 25.1 µM [inhibitor, full curve]
CCc1nc(N(CC)CC)c2oc3ccccc3c2n1	inactive
Cc1cccc(NC(=O)Cc2coc3ccc4ccccc4c23)n1	inconclusive: 44.7 µM [inhibitor, partial curve]
Fc1ccc(COc2cccc(-c3n[nH]c(=S)o3)c2)cc1	inconclusive: 39.8 µM [inhibitor, partial curve, poor fit]
Nc1nc(-c2ccccc2)cn1N	inactive
Cc1ccc(NC2=C(N3CCOCC3)C(=O)c3ccccc3C2=O)cc1	active: 12.6 µM
CCOC(=O)c1ccc(NC(=O)c2c(NC(=O)CCC(=O)O)sc3c2CCCCC3)cc1	inconclusive: 44.7 µM [inhibitor, partial curve, poor fit]
O=C(COc1ccc(Cl)cc1Cl)NC(=S)N1CCCc2ccccc21	inconclusive: 25.1 µM [inhibitor, full curve]
O=c1cc(-c2ccc(O)cc2)oc2c(O)c(O)c(O)c(O)c12	inconclusive: 28.2 µM [inhibitor, partial curve]

SMILES	Potency
CCOC(=O)c1cc(-c2ccccc2)sc1NC(=O)c1ccc(OC)cc1	inconclusive: 7.08 µM [inhibitor, full curve, poor fit]
O=C1NC(=S)S/C1=C1\Sc2ccccc2N1CCCS(=O)(=O)O	inconclusive: 89.1 µM [inhibitor, single point]
Cc1ccc(C2(CCNCc3ccc(N(C)C)cc3)CCOC(C(C)C)C2)cc1 (stereo unspecified)	inconclusive: 56.2 µM [inhibitor, partial curve]
CN(C(=O)CC1C(=O)NCCN1Cc1ccc(F)cc1)C1CCOCC1 (stereo unspecified)	inconclusive: 89.1 µM [inhibitor, partial curve, poor fit]
O=[N+]([O-])c1cccc(C(=S)N2CCN(c3ccccc3)CC2)c1	inconclusive: 12.6 µM [inhibitor, full curve, poor fit]
Cc1cccc(N2CCN(C(=O)c3ccc4c(c3)c(C)c(C)n4C)CC2)c1C	inconclusive: 44.7 µM [inhibitor, partial curve]
CC(C)=C[C@@H]1C[C@H](C)[C@H]2CC[C@H](C)c3c(O[C@@H]4O[C@@H](C)[C@@H](O)[C@@H](O)[C@@H]4O)c(O)c(C)c1c32	inconclusive: 50.1 µM [inhibitor, partial curve, poor fit]
Cc1ccc(Cl)cc1NC(=O)CCCn1c(=O)c2cccn2c2ccccc21	inactive
CC1(C)C(=O)Nc2ccccc2N1C(=O)COC(=O)c1ccc(NC(N)=O)cc1	inactive
CC(C)(C)Cc1nnc(NC(=O)CN2C(=O)c3ccccc3C2=O)s1	inconclusive: 39.8 µM [inhibitor, partial curve]
N#Cc1nc(-c2cccs2)oc1NCc1ccc2c(c1)OCO2	inconclusive: 50.1 µM [inhibitor, partial curve, poor fit]
Cc1ccc(N=Nc2ccc3ccccc3c2O)cc1	inconclusive: 3.55 µM [inhibitor, full curve, poor fit]
O=C(NC(=S)Nc1ccc(C(=O)N2CCOCC2)cc1)c1ccc([N+](=O)[O-])cc1	inconclusive: 44.7 µM [inhibitor, partial curve]
CCOc1ccc(NC(=S)NC(C)CCc2ccccc2)cc1 (stereo unspecified)	inactive
COc1ccc(CN(C)S(=O)(=O)c2nnc(NC(=O)C(C)C)s2)cc1OC	inactive
CC(=O)N1CCN(c2ccc(NCc3ccc(-c4cccc(Cl)c4)o3)cc2)CC1	inconclusive: 25.1 µM [inhibitor, full curve]
O=C(CCS(=O)(=O)c1ccc(F)cc1)Nc1nc(-c2ccncc2)cs1	inconclusive: 12.6 µM [inhibitor, partial curve]
O=C1C(Cl)=C(NS(=O)(=O)c2ccc([N+](=O)[O-])cc2)C(=O)c2ccccc21	inconclusive: 39.8 µM [inhibitor, partial curve]
CCN1CCN(C(c2ccc(C(F)(F)F)cc2)c2ccc3cccnc3c2O)CC1 (stereo unspecified)	inconclusive: 56.2 µM [inhibitor, single point]
Cc1ccc(CCN=c2c([N+](=O)[O-])nn(-c3ccccc3)n2O)cc1	inconclusive: 35.5 µM [inhibitor, partial curve]
O=C(COC(=O)CC1CCCC1)Nc1ccccc1[N+](=O)[O-]	inconclusive: 20 µM [inhibitor, full curve]
CCCCCCOC1(c2ccccc2)OC(=O)c2ccccc21 (stereo unspecified)	inactive

SMILES	Potency
COc1ccc2[nH]c(C)c(CCN(Cc3cccs3)C(=S)Nc3ccc(F)cc3)c2c1	inconclusive: 25.1 µM [inhibitor, partial curve, poor fit]
CCN(C(=O)COC(=O)/C=C/c1ccc(C)o1)c1c(N)n(Cc2ccccc2)c(=O)[nH]c1=O	inconclusive: 50.1 µM [inhibitor, partial curve]
COc1ccc2nc(NC(=S)N(C)C)sc2c1	inconclusive: 11.2 µM [inhibitor, single point]
Cc1c(N2C(=O)/C(=C\c3ccccc3O)SC2=S)c(=O)n(-c2ccccc2)n1C	inconclusive: 17.8 µM [inhibitor, full curve]
CCOC(=O)c1cc(-c2ccc(C)cc2)n(CCC(=O)Nc2ccc(OC)c(OC)c2)c1C	inconclusive: 28.2 µM [inhibitor, partial curve, poor fit]
O=C1C(C2=C(O)c3ccccc3C2=O)=Nc2ccccc21	inconclusive: 7.08 µM [inhibitor, full curve, poor fit]
O=[N+]([O-])c1cc(S(=O)(=O)C(F)(F)F)ccc1Sc1nc2ccccc2s1	inconclusive: 15.8 µM [inhibitor, full curve]
CCOc1ccc(CCNC(=O)CCNC(=O)c2ccco2)cc1OCC	inactive
FC(F)(F)c1nc2ccccc2n2c(-c3ccc(Cl)cc3)nnc12	inactive
CCOC(=O)C1CCN(S(=O)(=O)c2ccc3c(c2)NC(=O)C(C)C(=O)N3)CC1 (stereo unspecified)	inactive
N#CC1=C(N)N(c2ccc(F)cc2)C2=C(C1c1ccc(O)cc1)S(=O)(=O)CC2 (stereo unspecified)	active: 39.8 µM
Cc1ccc(-c2nc3cc(Br)cnc3nc2-c2ccc(C)cc2)cc1	inconclusive: 14.1 µM [inhibitor, partial curve, poor fit]
COc1cc(C2Nc3cccc4cccc(c34)N2)cc(OC)c1OC(C)=O	inconclusive: 17.8 µM [inhibitor, full curve, poor fit]
CC(CNc1ccccc1O)C(=O)O (stereo unspecified)	active: 50.1 µM
Cc1cn(CC(=O)NCC2CCCO2)c(=O)[nH]c1=O (stereo unspecified)	inconclusive: 39.8 µM [inhibitor, single point]
N#CC(=C1C=CC(=NO)C(Cl)=C1)c1ccc(Cl)cc1	inconclusive: 7.94 µM [inhibitor, full curve, poor fit]
COc1ccc(Nc2ccc(C(F)(F)F)cc2[N+](=O)[O-])cn1	inconclusive: 39.8 µM [inhibitor, partial curve]
COc1ccc2c(c1)c1c(c(=O)n(-c3ccccc3C)c(=O)n1CC(=O)Nc1c(C)cccc1C)n2C	inactive
COc1ccc(Br)c(C(=O)Nc2nc3ccccc3[nH]2)c1	inconclusive: 89.1 µM [inhibitor, partial curve, poor fit]
O=[N+]([O-])c1ccc(C2Nc3cccc4cccc(c34)N2)cc1	inconclusive: 17.8 µM [inhibitor, partial curve, poor fit]
O=C1C=C(Nc2ccccc2)C(=O)c2ccccc21	inconclusive: 12.6 µM [inhibitor, full curve]
Cc1ccccc1C(=O)Nc1nnc(S(=O)(=O)N2CCCCCC2)s1	inconclusive: 35.5 µM [inhibitor, partial curve]
